Test results reported in PubChem BioAssay AID485344 (National Center for Advancing Translational Sciences (NCATS), 2010).
Screen size: about 340,000 compounds; about 6,900 (2%) were called active. Cut-off read from the data, not from the text of the source: active = inhibition above about 30%; inactive = below that, where a call was filed. The list shows a part of the results, in another mix than the full data. Where no call is shown, the source filed none.

The compounds below were run against D(2) dopamine receptor (Homo sapiens) (UniProt P14416) (assay: HTS Assay for Allosteric Antagonists of the Human D2 Dopamine Receptor: Primary Screen for Antagonists). Conditions: HEK293 TREx D2 cells, calcium flux, dopamine EC80; at 10 µM; stronger effect = higher value.
UniProt P14416, sequence (P14416 whole entry, looked up): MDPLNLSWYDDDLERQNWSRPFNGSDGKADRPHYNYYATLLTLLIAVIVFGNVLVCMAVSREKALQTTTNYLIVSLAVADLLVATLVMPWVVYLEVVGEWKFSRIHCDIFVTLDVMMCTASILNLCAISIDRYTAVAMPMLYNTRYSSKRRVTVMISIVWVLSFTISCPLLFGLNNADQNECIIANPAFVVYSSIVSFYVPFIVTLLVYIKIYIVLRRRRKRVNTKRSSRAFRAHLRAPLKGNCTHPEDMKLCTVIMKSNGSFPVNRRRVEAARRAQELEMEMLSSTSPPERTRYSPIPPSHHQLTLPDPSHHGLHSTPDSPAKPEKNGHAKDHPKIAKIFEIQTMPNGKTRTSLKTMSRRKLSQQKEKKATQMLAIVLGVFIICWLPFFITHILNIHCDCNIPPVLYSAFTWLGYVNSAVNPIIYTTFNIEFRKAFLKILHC
Summary of the method: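 Cells plated overnight at 30 C with tetracycline; no-wash calcium dye, 30–90 min RT; 10 s baseline; compound pinned; 180 s read; EC80 dopamine added; another 180 s read.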
Note: 0% is about no effect.

| SMILES | inhibition |
| --- | --- |
| Cc1ccc(CCNC(=O)CN2N=C(c3ccc(C)cc3)CCC2=O)cc1 | -3.7% |
| Cc1cccc(N2CCN(S(=O)(=O)c3c(C)nc4scc(C)n4c3=O)CC2C)c1 (stereo not drawn) | 7.96% |
| CSc1ccc(/C=C/C(=O)OCC(=O)N2CCN(S(=O)(=O)c3ccc(C)cc3C)CC2)cc1 | active: 40.6% |
| CCOC(=O)c1sc(NC(=O)c2nc3nc(C)cc(C(F)F)n3n2)c(C(=O)OC)c1C | -3.36% |
| CC1CCN(C(=O)c2ccc(NC(=O)c3nsc4ccccc34)cc2)CC1 | -8.88% |
| CCC(=O)N1CCc2cc(CNS(=O)(=O)c3cc(Cl)ccc3OC)ccc21 | -8.2% |
| COc1ccc(Br)cc1CNC(=O)CCSCc1ccc(Cl)cc1 | 7.9% |
| CCN1CCN(c2cc(C)c3cc(NC(=O)c4cc(OC)cc(OC)c4)ccc3n2)CC1 | -2.74% |
| Cc1ccc(OCCn2c(COc3ccc(Cl)cc3)nc3ccccc32)cc1 | 3.45% |
| COc1ccc(-c2nc3ccc(C(=O)NCc4ccc(C)cc4)cc3nc2-c2ccc(OC)cc2)cc1 | 9.08% |
| Cc1cc(=O)[nH]c(SCC(=O)N2CCN(c3ccccc3)CC2)n1 | 7.92% |
| COc1ccc(Cl)cc1-n1c(CCC(=O)O)ccc1-c1ccc(C)cc1 | 21.3% |
| O=C(CC1N=C2c3ccccc3N=C(SCc3ccccc3Cl)N2C1=O)NC1CCCCC1 (stereo not drawn) | 20.3% |
| CC1CCN(S(=O)(=O)c2ccc3c(c2)N(CC(=O)Nc2ccc(F)c(Cl)c2)C(=O)CO3)CC1 | 4.58% |
| Cc1cccc(NC(=O)Cn2c(=O)n(Cc3ccc4c(c3)OCO4)c(=O)c3ccccc32)c1 | 7.74% |
| CCS(=O)(=O)c1c(Nc2ccc(F)c(Cl)c2)sc(C(=O)c2ccccc2)c1N | -3.27% |
| CCOc1ccc(-c2ccc(NS(=O)(=O)c3cc(C)ccc3OC)cc2)nn1 | 17.9% |
| Cc1ccc(N2CCN(C(=O)c3nn(C)c4c3CS(=O)(=O)c3ccccc3-4)CC2C)cc1 (stereo not drawn) | -23.3% |
| O=c1c2oc3ccccc3c2n(Cc2ccccc2F)c(=O)n1Cc1ccco1 | 7.62% |
| Cc1c(CNCCCc2ccccc2)c(C(=O)O)c(C)n1Cc1ccc(Cl)cc1 | 5.3% |
| Cc1ccc(Cn2cc(CCC(=O)NC3CCCCC3)c3ccccc32)cc1 | 10% |
| CCCCCSc1nnc2c(n1)OC(c1ccc(C)s1)N(C(C)=O)c1ccccc1-2 (stereo not drawn) | 3.16% |
| COc1ccc(S(=O)(=O)NC2(C(F)(F)F)NC(=O)N(CCc3ccccc3)C2=O)cc1 (stereo not drawn) | 25.7% |
| Oc1ccccc1-c1nc(/C=C/c2ccc(F)cc2)no1 | 8.08% |

| SMILES | inhibition |
| --- | --- |
| Cc1c(Cl)cccc1N1CC(c2nc3ccccc3n2Cc2ccccc2F)CC1=O (stereo not drawn) | -11.2% |
| Cc1cccc(N2CCN(C(=O)Nc3ccc(F)cc3)CC2C)c1 (stereo not drawn) | -10.7% |
| Cc1ccccc1NC(=O)Nc1nnc(N(C)Cc2ccccc2)s1 | -5.4% |
| Cc1cc(C)cc(C(=O)Nc2ccc(-c3cn4cccnc4n3)cc2)c1 | -3.04% |
| COC(=O)c1ccccc1NC(=O)c1nc(SCc2ccccc2C)ncc1Cl | 1.2% |
| COc1ccc(-n2cc3c(c2-c2cccc(Br)c2)c(=O)n(C)c(=O)n3C)cc1OC | -19.5% |
| COc1ccc(-c2cc(C(F)(F)F)nc(SCC(=O)NCc3ccc(F)cc3)n2)cc1 | -6.21% |
| O=C(OCC(=O)N1CCN(c2ccccc2)CC1)c1cccc([N+](=O)[O-])c1 | active: 30.3% |
| COc1cccc(NC(=O)Cn2c(=O)n(Cc3ccccc3)c(=O)c3c4c(sc32)CN(C(C)=O)CC4)c1 | -2.83% |
| CCCCc1ccc(NC(=O)Cn2cnc3c2c(=O)n(C)c(=O)n3C)cc1 | 1.53% |
| CCN(C(=O)c1sc2nc3n(c(=O)c2c1C)CCCCC3)c1ccccc1F | 13.3% |
| O=C(c1cc([N+](=O)[O-])ccc1Cl)N1CCN(Cc2ccc3c(c2)OCO3)CC1 | active: 44.2% |
| Cc1ccc(NC(=O)Nc2nnc(N3CCCCC3)s2)c(C)c1 | -0.16% |
| CCc1ccc(CNC(=O)c2cc3c(=O)oc4ccc(C)cc4c3s2)cc1 | -10.5% |
| COc1ccc(NC(=O)c2ccc3snnc3c2)cc1OC | -1.85% |
| CN(C)C(=O)c1ccc(S(=O)(=O)NCc2ccccc2Cl)s1 | 15.5% |
| COc1cc(OC)cc(-n2c(=O)[nH]c3cc(C(=O)NCCc4ccc(C)cc4)ccc3c2=O)c1 | 12.3% |
| O=C(CCSCc1ccccc1F)N1CCN(c2ccc(F)cc2)CC1 | -10.7% |
| Cn1cc(C(=O)NCc2ccc(F)cc2)c(=O)c2cc(S(=O)(=O)N3CCCCC3)ccc21 | 22.9% |
| CCOc1ccccc1NC(=O)Cn1c(=O)n(Cc2ccc(C(=O)NCCCOC)cc2)c(=O)c2ccccc21 | -9.45% |
| O=C(O)c1cccc(NC(=O)c2cccc(S(=O)(=O)Nc3cccc(C(=O)O)c3)c2)c1 | -2.26% |
| CCn1c(=O)c2cc(C(=O)N(C)c3cc(C)ccc3C)sc2c2ccccc21 | -8.09% |
| CC(C)c1ccc(Nc2nc3ccc(C(=O)c4ccccc4)cc3n3cnnc23)cc1 | -1.93% |
| CCOc1ccc(Sc2cc(C(=O)NCCc3ccc(OC)c(OC)c3)c3ccccc3n2)cc1 | 9.65% |
